Measured values reported in the supplement of paper PMC4967469.
By IC50 is meant the dose at which the fit gives 50% viability; a limit (>, <) means that the fit lies beyond the doses tested. AUC, from the same fit, is the share of area under the viability curve across the 256-fold dose range; values near 1 show little effect. For some of these results: A top dose marked as inferred was derived from the fitted curves, not read from the paper. For some of these results: Drugs with an entry number were screened twice under separate entries, and the two screens often disagree.

Tests used:
Test in all cases: Viability of human cancer cell lines after 72 h of drug (GDSC screen)
[1] = compound: COc1cc(F)c(F)c(Nc2ccc(I)cc2F)c1NS(=O)(=O)C1(C[C@H](O)CO)CC1 [RDEA119]; conditions: top dose 5 µM, top dose inferred
Experimental: (§1)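 Human cancer cell lines in 384-well plates, medium with 10% serum, drug for 72 h over a 256-fold dose range (nine 2-fold or five 4-fold steps up to the top dose). Adherent lines were fixed and stained with the nucleic acid dye Syto60, suspension lines read with resazurin; signal relative to control wells, capped at 0 and 100%. One two-parameter sigmoid per drug and line, fitted in a mixed model over all curves with the slope shared within a line.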

[2] = compound: NCC(=O)Nc1ccc(-n2nc(C(F)(F)F)cc2-c2ccc3c(ccc4ccccc43)c2)cc1 [OSU-03012]; conditions: top dose 16 µM; top dose inferred
Experimental: as §1

[3] = compound: OC[C@H](Cc1ccccc1)Nc1nc(Oc2ccc3c(c2)CCC3)nc2c1ncn2Cc1ccc(-c2ccccc2)cc1 [QS11]; conditions: top dose 10.24 µM
Experimental: as §1

[4] = compound: CC(C)(C)c1cc(NC(=O)Nc2ccc(-c3cn4c(n3)sc3cc(OCCN5CCOCC5)ccc34)cc2)no1 [AC220]; conditions: top dose 1.024 µM; top dose inferred
Experimental: as §1

[5] = compound: Fc1cc(-c2ccnc(Nc3ccc(-n4cnc(N5CCOCC5)n4)cc3)n2)cc(N2CCOCC2)c1 [JNK-9L]; conditions: top dose 5.12 µM; top dose inferred
Experimental: as §1

[6] = compound: C#Cc1cccc(Nc2ncnc3cc(OC)c(OCCCCCCC(=O)NO)cc23)c1 [CUDC-101]; conditions: top dose 5.12 µM; top dose inferred
Experimental: as §1

Cell Line	AUC ([1]; screen: GDSC drug entry 1014)	IC50 ([1]; screen: GDSC drug entry 1014)	AUC [2]	IC50 [2]	AUC [3]	IC50 [3]	AUC [4]	IC50 [4]	AUC [5]	IC50 [5]	AUC [6]	IC50 [6]	AUC ([1]; screen: GDSC drug entry 1526)	IC50 ([1]; screen: GDSC drug entry 1526)
201T (lung adenocarcinoma, adherent)	0.869	> 5000 nM	0.568	1610 nM	0.815	7540 nM	0.924	> 1020 nM	0.522	372 nM	0.789	2930 nM		
786-0 (kidney, adherent)	0.784	1940 nM	0.402	551 nM	0.607	1230 nM	0.987	> 1020 nM	0.494	309 nM	0.526	375 nM	0.821	2600 nM
A427 (non-small cell lung carcinoma, adherent)	0.843	3600 nM	0.556	1430 nM	0.931	> 10200 nM	0.982	> 1020 nM	0.584	543 nM	0.807	2660 nM	0.875	5000 nM
A431 (skin, adherent)	0.782	2000 nM	0.609	1970 nM	0.754		0.98	> 1020 nM	0.464	256 nM	0.388	160 nM	0.933	> 5000 nM
A498 (kidney, adherent)	0.861	> 5000 nM	0.961	> 16000 nM	0.977	> 10200 nM	0.978	> 1020 nM	0.462	239 nM	0.953	> 5120 nM	0.779	3190 nM
A704 (kidney, adherent)	0.877	4770 nM	0.759	5420 nM	0.988	> 10200 nM	0.989	> 1020 nM	0.572	500 nM			0.869	4350 nM
A2780 (ovary, semi-adherent)	0.932	> 5000 nM	0.683	3310 nM	0.864	9520 nM	0.962	> 1020 nM	0.569	496 nM	0.517	357 nM	0.888	> 5000 nM
ACHN (kidney, adherent)			0.672	3240 nM	0.887	> 10200 nM	0.982	> 1020 nM	0.501	323 nM	0.711	1390 nM	0.758	1960 nM
BB30-HNC (head and neck, adherent)	0.604	598 nM	0.59	1760 nM	0.75	3280 nM	0.984	> 1020 nM	0.31	95 nM	0.521	364 nM		
BT-20 (breast, adherent)	0.894	> 5000 nM	0.862	> 16000 nM	0.982	> 10200 nM	0.971	> 1020 nM	0.596	627 nM	0.694	1290 nM	0.951	> 5000 nM
BT-474 (breast, adherent)	0.928	> 5000 nM	0.703	4010 nM	0.969	> 10200 nM	0.974	> 1020 nM	0.675	1050 nM	0.744	1760 nM	0.979	> 5000 nM
BxPC-3 (pancreas, adherent)	0.745	1730 nM	0.7	3940 nM	0.915	> 10200 nM	0.983	> 1020 nM	0.512	347 nM	0.564	490 nM	0.756	1900 nM
C32 (melanoma, adherent)	0.329	101 nM	0.986	> 16000 nM	0.986	> 10200 nM	0.987	> 1020 nM	0.794	2530 nM	0.949	> 5120 nM	0.483	280 nM
CAL-12T (non-small cell lung carcinoma, adherent)	0.692	1160 nM	0.504	1030 nM	0.696	2440 nM	0.967	> 1020 nM	0.645	847 nM	0.751	1870 nM	0.836	3900 nM
CAPAN-1 (pancreas, adherent)	0.837	3870 nM	0.837	12400 nM	0.906	> 10200 nM	0.986	> 1020 nM	0.537	409 nM	0.81	3060 nM		
CFPAC-1 (pancreas, adherent)	0.844	4360 nM	0.712	4370 nM	0.906	> 10200 nM	0.984	> 1020 nM	0.591	590 nM	0.943	> 5120 nM	0.774	2250 nM
COLO-205 (large intestine, suspension)	0.278		0.462	790 nM	0.673	1930 nM	0.987	> 1020 nM	0.411	183 nM	0.65	826 nM	0.443	218 nM

Cell Line	AUC ([1]; screen: GDSC drug entry 1014)	IC50 ([1]; screen: GDSC drug entry 1014)	AUC [2]	IC50 [2]	AUC [3]	IC50 [3]	AUC [4]	IC50 [4]	AUC [5]	IC50 [5]	AUC [6]	IC50 [6]	AUC ([1]; screen: GDSC drug entry 1526)	IC50 ([1]; screen: GDSC drug entry 1526)
COR-L23 (large cell lung carcinoma, adherent)	0.815	2660 nM	0.517	1110 nM	0.822	5800 nM	0.987	> 1020 nM	0.64	770 nM	0.518	358 nM	0.851	3660 nM
Caov-4 (ovary, adherent)	0.789	3430 nM	0.966	> 16000 nM	0.933	> 10200 nM	0.932	> 1020 nM	0.843	> 5120 nM			0.841	> 5000 nM
Capan-2 (pancreas, adherent)	0.8	3030 nM	0.777	7890 nM	0.985	> 10200 nM	0.93	> 1020 nM	0.677	1110 nM	0.941	> 5120 nM	0.653	915 nM
ChaGo-K-1 (non-small cell lung carcinoma, adherent)	0.954	> 5000 nM	0.782	7840 nM	0.931	> 10200 nM	0.976	> 1020 nM	0.711	1410 nM	0.809	3210 nM	0.981	> 5000 nM
DEL (lymphoid neoplasm, suspension)	0.993	> 5000 nM	0.662	2540 nM	0.91	9050 nM	0.994	> 1020 nM	0.515	348 nM	0.451	242 nM	0.97	> 5000 nM
DU-145 (prostate, adherent)	0.662	930 nM	0.631	2400 nM	0.805	5870 nM	0.985	> 1020 nM	0.494	307 nM	0.542	422 nM	0.753	1850 nM
EKVX (lung adenocarcinoma, adherent)	0.751	3980 nM	0.857	> 16000 nM	0.857	> 10200 nM	0.968	> 1020 nM	0.797	> 5120 nM	0.779	> 5120 nM	0.742	3560 nM
H290 (mesothelioma, adherent)	0.711	1160 nM	0.743	4600 nM	0.986	> 10200 nM	0.954	> 1020 nM	0.471	269 nM			0.821	2590 nM
HSC-39 (stomach, suspension)	0.921	> 5000 nM	0.974	> 16000 nM	0.991	> 10200 nM	0.975	> 1020 nM	0.744	1410 nM			0.911	> 5000 nM
HeLa (cervix, adherent)	0.966	> 5000 nM	0.655	2630 nM	0.879	9650 nM	0.983	> 1020 nM	0.549	432 nM			0.867	4170 nM
KARPAS-231 (B-cell leukaemia, suspension)	0.99	> 5000 nM	0.467	831 nM	0.657	1560 nM	0.926	1000 nM	0.486	296 nM			0.99	> 5000 nM
KG-1 (acute myeloid leukaemia, suspension)	0.955	> 5000 nM	0.824	8220 nM	0.962	> 10200 nM			0.573	496 nM	0.491	303 nM	0.83	2700 nM
MCF7 (breast, adherent)	0.977	> 5000 nM	0.526	1180 nM	0.752	3520 nM			0.497	315 nM	0.911	> 5120 nM	0.978	> 5000 nM
MOLT-4 (lymphoblastic leukaemia, suspension)	0.968	> 5000 nM	0.529	1180 nM	0.921	> 10200 nM			0.627	668 nM	0.349	133 nM	0.971	> 5000 nM
SW620 (large intestine, adherent)	0.561	448 nM	0.561	1440 nM	0.776	3620 nM	0.99	> 1020 nM	0.563	467 nM			0.62	639 nM
TE-441-T (rhabdomyosarcoma, adherent)			0.879	15200 nM	0.951	> 10200 nM	0.984	> 1020 nM	0.543	418 nM				
U-2-OS (osteosarcoma, adherent)			0.875	> 16000 nM	0.984	> 10200 nM	0.98	> 1020 nM	0.815	3120 nM			0.76	1920 nM
